Results as given in the supplement of paper PMC10126150.
Sequences with one replicate were seen in a single cluster, so their values are uncertain.

System: ATP
Assay: switch fluorescence ratio, 500 uM ATP over buffer (Cy3 cluster intensity, sum of 5 cycles each) (fold (ratio)); higher = stronger signal-on switching upon ATP binding; sequences stand for … in TCGTCGGCAGCGTCAGATGTGTATAAGAGACAGTTTTTTTTTTTTTTTTTTTTTTTTT…TC
Conditions: aptamer strand: ATP DNA aptamer (quencher-CACCTGGGGGAGTATTGCGGAGGAAGG + anchor), 100 nM annealed; ATP concentration: 500 uM; one replicate
Outline: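 Values give the fluorescence ratio for each switch-domain sequence, averaged from per-cluster ratios of summed target-cycle to summed buffer-cycle Cy3 intensity. The Cy3-labelled switching-strand clusters sat on a modified Illumina MiSeq flow-cell, were annealed to 100 nM quencher-labelled ATP aptamer, and were imaged in selection buffer, then after 15 min with 500 uM ATP at 22 °C. Five cycles ran with NaOH stripping and re-annealing between them, and clusters outside 100-1000 RFU were excluded.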
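Also: ATP exposure 15 min at 22 °C before imaging.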

Sequence	switch fluorescence ratio
AAAAAAGACC	1.02
AAAAAAGAT	0.955
AAAAAATGT	0.984
AAAAACAGAT	0.978
AAAAACATTA	1.05
AAAAACCCTA	1.04
AAAAAGCCAC	1.07
AAAAAGCCTA	1.01
AAAAAGTACT	1.07
AAAAATCTGT	0.955
AAAAATGA	1.05
AAAAATGAGT	1
AAAAATGG	1.01
AAAACCAGTT	1.03
AAAACCGATG	1.03
AAAACCTATT	1.01
AAAACCTCGT	1.03
AAAACTGGG	1.17
AAAAGACGTG	0.985
AAAAGAGATA	0.969
AAAAGCAGTC	1.12
AAAAGCCATT	1.03
AAAAGCGAGC	0.987
AAAAGGATGC	1.07
AAAAGGGACC	0.949
AAAAGGGCAA	1.21

Sequence	switch fluorescence ratio
AAAAGGGGA	1.01
AAAATAGAA	0.98
AAAATAGTCA	1.02
AAAATCGCAA	5.1
AAAATCGTGC	0.981
AAAATGAGCG	1.06
AAAATTAGCT	1.03
AAAATTTCCC	1.06
AAAATTTGTA	0.975
AAAATTTTAC	1.06
AAACACGTCT	1.02
AAACAGTAA	1.05
AAACATGTAG	0.998
AAACATTCCC	1.73
AAACATTCGG	1.02
AAACATTCTA	1
AAACATTTAT	1
AAACCACTGG	1.06
AAACCAGTCC	2.07
AAACCATAGC	1.06
AAACCATGTT	1.04
AAACCGAG	1.78
AAACCGAGAC	1.72
AAACCGGAAA	1.08
AAACCGGTGA	1.05
AAACCTTGTA	1

Sequence	switch fluorescence ratio
AAACGAGGAT	1.01
AAACGAGTCG	0.989
AAACGATTAG	1.02
AAACGCACTA	1.27
AAACGCATAG	1.47
AAACGCCCG	1.02
AAACGCTCGG	1.03
AAACGGACAG	1.21
AAACGGAGTA	0.994
AAACGGGCTT	0.973
AAACGTCGCA	1.01
AAACGTGCC	1.22
AAACGTTTTT	0.978
AAACTAATCG	0.941
AAACTAATTG	0.996
AAACTAGGTG	1.76
AAACTAGTA	0.958
AAACTATATC	1.05
AAACTCATCA	0.969
AAACTGCGGC	1.04
AAACTGGTCA	1.05
AAACTGGTGA	1.05
AAACTTCTTT	1.01
AAACTTGAAG	1.02
AAACTTGGTT	1.01
AAACTTTCGG	1.04

Sequence	switch fluorescence ratio
AAAGAAAAGC	0.981
AAAGAAGTC	1.04
AAAGAGAACA	1.03
AAAGAGAAGA	0.982
AAAGAGAGA	1.02
AAAGAGCAGC	1.07
AAAGATTAGA	0.937
AAAGATTCCT	1.03
AAAGCAGACG	0.918
AAAGCATAAA	0.955
AAAGCATTAA	1.09
AAAGCATTTA	0.999
AAAGCCCCGA	1.03
AAAGCCCGTA	1.09
AAAGCCCGTC	1.08
AAAGCCGAT	0.976
AAAGCGATA	1.24
AAAGCGGTAG	1.01
AAAGCGTTCC	2.57
AAAGCGTTGT	0.989
AAAGCTACA	1.11
AAAGCTGCAC	1.28
AAAGGACCA	1.02
AAAGGAGCTC	1.04
AAAGGCATAG	1.01
AAAGGCATCT	1.03

Sequence	switch fluorescence ratio
AAAGGCTCTG	0.97
AAAGGCTGGT	0.989
AAAGGGAATT	0.921
AAAGGGAC	1.03
AAAGGGACG	0.964
AAAGGGAGTT	0.989
AAAGGGATTG	0.993
AAAGGGCAAC	0.993
AAAGGGCTTA	0.991
AAAGGTGCA	1.06
AAAGGTGTGA	0.991
AAAGGTTTAG	0.981
AAAGTACATA	1.2
AAAGTACGTA	1.12
AAAGTATCTA	0.98
AAAGTCCAAG	0.976
AAAGTCCGTG	0.985
AAAGTCGGTT	1.03
AAAGTGATGA	1.04
AAAGTGCCA	0.985
AAAGTTACGA	1.02
AAAGTTGTCA	0.967
AAAGTTTCAA	1.01
AAATAAAAGT	0.975
AAATAATCGC	1.02
AAATACGCAT	1.4

Sequence	switch fluorescence ratio
AAATACGCCT	1.2
AAATACTTAG	1.05
AAATAGCGAA	0.983
AAATATAGAA	0.961
AAATATCTAA	1.01
AAATCATCT	1
AAATCGAATG	0.97
AAATCGACAG	0.988
AAATCGAGTT	0.986
AAATCGCAAC	1.99
AAATCGTAAT	0.991
AAATCTAAGC	0.959
AAATCTCCTG	1.05
AAATCTCTGG	0.975
AAATGAACAG	0.941
AAATGAGAAT	1.04
AAATGATATT	1.01
AAATGCACTA	1.04
AAATGCCGTC	0.975
AAATGCGACA	0.993
AAATGGCTAG	0.953
AAATGGGTAA	0.94
AAATGGGTCG	0.961
AAATGTCCTT	1.08
AAATGTGGCC	1.02
AAATTACTCC	1.28

Sequence	switch fluorescence ratio
AAATTATCAC	1.03
AAATTCATAT	1.04
AAATTCCGAA	0.993
AAATTCCGAC	1.82
AAATTGAG	1.01
AAATTGGTGC	1.04
AAATTTAACG	1.04
AAATTTAGAA	0.993
AAATTTAGAC	1.01
AAATTTAGG	1.01
AAATTTATGA	0.964
AAATTTCG	0.986
AAATTTCGGG	0.973
AAATTTGTCA	1.02
AAATTTTCCA	1.05
AACAAAATAG	1.03
AACAAATTAG	1.02
AACAACCGTG	1.01
AACAACGTCC	1.07
AACAACTGTT	0.84
AACAAGAAGG	1.01
AACAAGGGTT	0.944
AACAAGTGTC	1.1
AACAAGTTTT	1
AACACAAGTC	1.04
AACACAGCGA	1.12

Sequence	switch fluorescence ratio
AACACCCTT	1.04
AACAGACTAC	1.09
AACAGGAAAG	1.02
AACAGGGTGT	1.07
AACAGGTCGT	1.05
AACAGTAGGC	1.04
AACAGTCGGG	0.995
AACAGTTTGC	0.968
AACATACACG	1.38
AACATACTCT	1.22
AACATATT	1.04
AACATCGGTC	1.03
AACATCTGTT	0.953
AACATGCATG	1.04
AACATTTGCT	1.04
AACATTTGGG	0.993
AACCAAGAAT	1.06
AACCACAAGT	1.04
AACCAGCTTC	1.01
